# Measured values as given in ChEMBL document CHEMBL1201862, “PubChem BioAssay data set” (2004).
#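 1) Cells in 96-well plates. 2) Compound, 48 h, 5 concentrations. 3) Linear interpolation between surrounding doses. 4) Unreached endpoint = highest concentration. At the GI50, growth is halved.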 Active and inactive are the calls of the source. Rule as the data show it: active = GI50 up to about 1.1 µM and inactive = higher.
# Test system: NCI-H322M
# Assay: inhibition of tumour cell growth, NCI panel, 48 h
row,Compound,GI50
1,N=C(N)N/N=C/c1c(-c2ccc([N+](=O)[O-])cc2)nc2sccn12,inactive: 1.74 µM
2,Nc1nncc2[nH]nnc12,inactive: > 100 µM
3,COc1nc2ncc([C@@H](O)[C@H](O)CO)nc2c(=O)n1C,inactive: > 100 µM
4,O=C(O)c1nc(-c2ccccc2)[nH]c1C(=O)O,inactive: 17.1 µM
5,CN(C)CCNC(=O)c1cccc(N(C)C(=O)c2ccccc2)c1[N+](=O)[O-],inactive: > 100 µM
6,CC1(C)Cc2nc3c(cc2C(=O)C1/C=N/C(C#N)=C(\N)C#N)C(=O)C(/C=N/C(C#N)=C(\N)C#N)C(C)(C)C3 (stereo not given),inactive: 3.23 µM
7,COCC1C(=O)c2cc3c(cc2C12C=CC1(C=C2)OCCO1)OCO3 (stereo not given),inactive: 15 µM
8,O=C(NC(O)(C(F)(F)F)C(F)(F)F)c1ccccc1,inactive: > 100 µM
9,O=C(Nc1ccc([N+](=O)[O-])cc1C(=O)O)c1ccc([N+](=O)[O-])cc1,inactive: 32.6 µM
10,CC(=O)c1ccc(NCc2cc(O)ccc2O)cc1,inactive: 22.8 µM
11,CC1(O)CC(C(F)(F)F)(C(F)(F)F)OC1=O (stereo not given),inactive: > 10 µM
12,Nc1ccc2ncc(NCc3ccc(F)cc3)nc2c1,inactive: 63.1 µM
13,CC(C)C(/N=C1\CC2CCC1(C(=O)Nc1ccccc1O)C2(C)C)c1ccccc1 (stereo not given),inactive: > 10 µM
14,CC(=O)N1C2=CCCC2(C)c2ccccc21 (stereo not given),inactive: > 100 µM
15,N=C1CCCC1C(=S)SCCC(N)=O (stereo not given),inactive: > 100 µM
16,C=CCO/N=C(\OC(=O)c1ccc([N+](=O)[O-])cc1)c1ccccc1,inactive: > 100 µM
17,CC(=O)NNc1nc(C)c(C(=O)NNC(=O)C(=O)Nc2nc3ccc([N+](=O)[O-])cc3s2)s1,inactive: 45.9 µM
18,CC12CCC(CC1)C(C)(C)O2 [EUCALYPTOL],inactive: 28.1 µM
19,CC[n+]1c(/C=C/c2ccc(N(CCCl)CCCl)cc2)ccc2cc(I)ccc21,inactive: 2.14 µM
20,COc1ccc(OC)c(NC(=O)CCC/C(CC(=O)c2ccc(O)c(OC)c2)=N\Nc2ccc([N+](=O)[O-])cc2)c1,inactive: > 100 µM
21,CC(C)=CC(=O)OC1C2C(C)=CC(=O)C(O)C2(C)C2C3(O)OCC24C(CC(=O)OC14)C(C)C3O (stereo not given),active: 0.169 µM
22,Cc1cc2oc(=N)c(C#N)c(C)c2cc1C,inactive: 85.9 µM
23,Clc1ccc(-c2c(C3=NCCN3)nnn2-c2ccccc2)cc1,inactive: > 100 µM

row,Compound,GI50
1,O=C(CON1C(=O)c2ccccc2C1=O)c1ccccc1,inactive: > 100 µM
2,Cc1ccc(NC(=O)CCc2nnc(N)o2)cc1,inactive: > 100 µM
3,C/C(=C\c1ccccc1)C(=O)NCc1ccc(C(=O)NCCc2ccccc2)cc1,inactive: > 100 µM
4,NNC(=O)CC(=O)Nc1ccc(C(=O)O)cc1,inactive: > 100 µM
5,c1ccc(C2=C(c3ccccc3)Sc3nnc(CCCCCCCCc4nnc5n4NC(c4ccccc4)=C(c4ccccc4)S5)n3N2)cc1,inactive: 43.7 µM
6,COc1cc(C[P+](c2ccccc2)(c2ccccc2)c2ccccc2)cc(OC)c1OC,inactive: > 100 µM
7,CC1(c2nc3cc(Cl)c(Cl)cc3[nH]2)CCC(C(=O)O)C(C)(C)O1 (stereo not given),inactive: > 100 µM
8,CC(C)CCCC(C)[C@H]1CC[C@H]2[C@@H]3CC[C@H]4C[C@@H](CCC=C(c5cc(Cl)c(O)c(C(=O)OC(C)C)c5)c5cc(Cl)c(O)c(C(=O)OC(C)C)c5)CC[C@]4(C)[C@H]3CC[C@]12C (stereo not given in full),inactive: > 50 µM
9,O=C(CCc1ccccc1)NS(=O)(=O)c1ccccc1,inactive: > 100 µM
10,COc1cc2[nH]c3c(c2cc1OC)CCN[C@@]31CC[C@@]2(CC3c4c(cc(OC)c(O)c42)CCN3C)C[C@@H]1OC (stereo not given in full),inactive: 62.8 µM
11,COc1ccc(C(OC(=O)[C@H](O[Si](C)(C)C(C)(C)C)[C@@H](NC(=O)c2ccccc2)c2ccccc2)c2ccc(OC)cc2)cc1,inactive: > 100 µM
12,CC(C)=CCCC(C)[C@H]1CC(O)C2(C)C3=CCC4C(C)(C)[C@@H](O)CC[C@]4(C)C3=CC[C@]12C (stereo not given in full),inactive: 5.5 µM
13,CC(C)c1cccc(C(C)C)c1NC(=S)Nc1ccccc1,inactive: > 100 µM
14,COC(=O)/C=C\C(C#N)(C#N)/N=C/c1ccc(OC)cc1,inactive: 25.7 µM
15,O=[N+]([O-])c1cc([N+](=O)[O-])c(C(Cl)C(Cl)c2ccccc2)cc1C(Cl)C(Cl)c1ccccc1 (stereo not given),inactive: 5.22 µM
16,O=c1[nH]c2nc3ccccc3c(=O)n2/c1=C/c1ccc(O)cc1,inactive: 47.6 µM
17,CC1C(=O)OCC2=CCN3CCC(OC(=O)C(C)C1(C)O)C23 (stereo not given),inactive: > 100 µM
18,O=C(c1cccnc1)N1N=C(c2ccc(Cl)cc2)CC1(O)c1cc(F)c(Cl)cc1Cl (stereo not given),inactive: 31.3 µM
19,CCCC(OCC)(OCC)OCC,inactive: > 100 µM
20,C[C@H]1CC[P+](C)(c2ccccc2)C1 (stereo not given in full),inactive: > 100 µM
21,CN(C)Cc1cc(C(=O)/C=C/c2ccccc2Cl)cc(CN(C)C)c1O,inactive: 2.45 µM
22,Cc1ccc(S(=O)(=O)C2=Cc3ccccc3C2(O)c2ccccc2)cc1 (stereo not given),inactive: 24 µM
23,Cn1c2ccccc2n2c3ncccc3c(=S)c(C#N)c12,inactive: > 100 µM

row,Compound,GI50
1,CC(C)Cc1ccc(C(C)C(=O)N2CCN(/C=C/c3ccccc3)CC2)cc1 (stereo not given),inactive: 17.3 µM
2,O=C(/C=C/c1ccccc1F)c1ccc(Cl)c(Cl)c1,inactive: > 91 µM
3,CSC1SCC2C(=O)N(C)C3(CC3C)C(=O)OCC(NC(=O)c3nc4ccccc4cc3O)C(=O)NC(C)C(=O)N(C)C1C(=O)N(C)C1(CC1C)C(=O)OCC(NC(=O)c1nc3ccccc3cc1O)C(=O)NC(C)C(=O)N2C (stereo not given),active: < 0.0001 µM
4,COC(=O)c1c(N)n[nH]c1N,inactive: > 100 µM
5,CCn1cc(C(=O)O)c(=O)c2ccc(C)nc21 [NALIDIXIC ACID],inactive: > 100 µM
6,CSC1=NC(C(N)=O)C(N)N1C (stereo not given),inactive: > 100 µM
7,CCCN(CCCCC(NC(C)=O)C(=O)NCc1ccccc1)C(=O)NC (stereo not given),inactive: > 100 µM
8,O=C1CS/C(=N/N=C/c2cn(Cc3ccc(Cl)cc3Cl)c3ccccc23)N1,inactive: 38.1 µM
9,OCCCc1ccc2c(c1)[C@H](CO)[C@@H](c1ccc(O)cc1)O2,inactive: > 100 µM
10,CN(C)CCNC(=O)c1cccc2[nH]c(-c3ccncc3)nc12,inactive: 5.66 µM
11,C[C@]12CCC(O)CC1=CC[C@@H]1[C@@H]2CC[C@]2(C)C(=O)[C@H](n3ccnc3)C[C@@H]12 (stereo not given in full),inactive: > 100 µM
12,COC1CCC(O)C(CO)O1 (stereo not given),inactive: > 100 µM
13,O=c1[nH]c(=O)n(C2COC(CO)C2O)cc1F (stereo not given),inactive: 35.6 µM
14,CCn1c(=O)c2nc(SC)sc2n(-c2ccc(C)cc2)c1=O,inactive: > 100 µM
15,c1ccc(-c2cccc(-c3ccccn3)n2)nc1 [TERPYRIDINE],active: 0.466 µM
16,CC(=O)NC(CSC1=C2NC(=O)\C=C/C=C\C=C/C(C)C(O)CC(=O)/C(C)=C\CC(O)/C=C\C(C)C(O)C(C)C=C(C)C(=O)c3c(O)c(C)cc(c3C1=O)C2=O)C(=O)O (stereo not given),inactive: > 100 µM
17,CCC1(O)CN(CCOC)[C@H]2C[C@@H]1C(=O)c1[nH]c3ccccc3c12 (stereo not given in full),inactive: > 100 µM
18,Nn1c(CCCl)nc2c(Br)cc(Br)cc2c1=O,inactive: 25.5 µM
19,COc1cc(Cn2c3c(c4c(CN(C)C)c(O)ccc42)C(=O)c2ccccc2C3=O)cc(OC)c1,inactive: 67.6 µM
20,O=c1oc2ccc3ccccc3c2cc1-c1nnc(Nc2ccccc2)s1,inactive: > 100 µM
21,O=C1OC(CCCN2CCCCC2)(c2ccccc2)CC12CCCC2 (stereo not given),inactive: > 68.9 µM
22,Cc1c2c(n(CCc3ccc(Cl)cc3)c1C)NN=C(C#N)S2(=O)=O,inactive: > 100 µM
23,COC(=O)CCc1cc(OC)c2c(c1)[C@H](C(=O)OC)[C@@H](c1ccc(O)c(OC)c1)O2,inactive: > 100 µM

row,Compound,GI50
1,C=CCCOC(=O)CO[N+](=O)[O-],inactive: > 100 µM
2,COC(c1ccc(C(C)(C)C)cc1)(c1ccc(C(C)(C)C)cc1)c1cc(C(O)(c2cc(C(OC)(c3ccc(C(C)(C)C)cc3)c3ccc(C(C)(C)C)cc3)c(C)cc2C)c2cc(C(OC)(c3ccc(C(C)(C)C)cc3)c3ccc(C(C)(C)C)cc3)c(C)cc2C)c(C)cc1C,inactive: > 100 µM
3,Cc1nc(C(N)=S)sc1/C(CC(=O)C(=O)Nc1cccc2ccc(O)cc12)=N\NC(=O)c1ccncc1,inactive: > 100 µM
4,C=C(C)C1CC2=C(O1)C(=O)c1ccccc1C2=O (stereo not drawn) [DEHYDROISO-ALPHA-LAPACHONE],inactive: 21 µM
5,N#C/C(=C/n1c(=S)[nH]c2ccccc21)C(N)=O,inactive: > 100 µM
6,COc1ccc2oc(=N)c(C(=O)Nc3ccccn3)cc2c1,inactive: > 100 µM
7,COc1ccc(-c2ncn(C[Si](C)(C)C)c2-c2ccc(OC)cc2)cc1,inactive: 5.46 µM
8,Cc1cc2c(cc1Cl)SC(NNc1ccc([N+](=O)[O-])cc1)=NS2(=O)=O,inactive: > 10 µM
9,Cc1cn([C@@H]2O[C@H](CO)[C@@H](O)[C@@H]2O)c(=O)[nH]c1=O,inactive: > 1000 µM
10,Cc1ccc(Cc2n[nH]c(=O)n2N2C(=O)c3ccccc3C2=O)cc1,inactive: > 100 µM
11,O=S(=O)(c1ccccc1)n1c(C(O)c2ccncc2)cc2ccccc21 (stereo not given),inactive: 53.8 µM
12,CC1=NN(c2cccc(Cl)c2)C(=N/c2nc3ccccc3s2)/C1=C\c1ccccc1O,inactive: 30.6 µM
13,NC(=O)c1cc2ccccc2c(/N=N/c2ccccc2)c1O,inactive: > 100 µM
14,NS(=O)(=O)c1nnc(NC(=O)/C=C/C(=O)O)s1,inactive: > 100 µM
15,C/C=C1\CNC1C(=O)O (stereo not given),inactive: > 100 µM
16,CCCCNC1CCC2(SCCS2)c2[nH]c3ccccc3c21 (stereo not given),inactive: 71.8 µM
17,CCOC(=O)N1N=C(/C(C)=N/OC)C(C)[S+]1[O-] (stereo not given),inactive: > 100 µM
18,CS(=O)(=O)OCCCNCCCOS(C)(=O)=O,inactive: 2120 µM
19,CCOC(=O)CCC(NC(=O)c1ccc(Nc2nc3ccccc3nc2C(=O)OCC)s1)C(=O)OCC (stereo not given),inactive: > 100 µM
20,COc1cccc(OCC(=N/NC(=O)c2ccncc2)/N=C/c2cccnc2)c1,inactive: > 100 µM
21,CCNC(=S)/N=c1\sc(NCC)nc2sc3c(c12)CCN(N1CCc2c(sc4nc(NCC)s/c(=N\C(=S)NCC)c24)C1)C3,inactive: 33.3 µM
